These are yes or no findings as the source states them, for the method shown. In cells and extracts the contact can be indirect. Some entries that bind do so weakly or less than the wild type. For part of these data: Sequences can lack the tags named with a protein.
B1: Menin (protein, UniProt O88559 1-611)
chain: MGLKAAQKTLFPLRSIDDVVRLFAAELGREEPDLVLLSLVLGFVEHFLAVNRVIPTNVPELTFQPSPAPDPPGGLTYFPVADLSIIAALYARFTAQIRGAVDLSLYPREGGVSSRELVKKVSDVIWNSLSRSYFKDRAHIQSLFSFITGTKLDSSGVAFAVVGACQALGLRDVHLALSEDHAWVVFGPNGEQTAEVTWHGKGNEDRRGQTVNAGVAERSWLYLKGSYMRCDRKMEVAFMVCAINPSIDLHTDSLELLQLQQKLLWLLYDLGHLERYPMALGNLADLEELEPTPGRPDPLTLYHKGIASAKTYYQDEHIYPYMYLAGYHCRNRNVREALQAWADTATVIQDYNYCREDEEIYKEFFEVANDVIPNLLKEAASLLETGEERTGEQAQGTQGQGSALQDPECFAHLLRFYDGICKWEEGSPTPVLHVGWATFLVQSLGRFEGQVRQKVHIVSREAEAAEAEEPWGDEAREGRRRGPRRESKPEEPPPPKKPALDKGPGSGQSAGSGPPRKTSGTVPGTTRGGQEVGNAAQAPAPAASPPPEGPVLTFQSEKMKGMKELLVATKINSSAIKLQLTAQSQVQMKKQKVSTPSDYTLSFLKRQRKGL

By UniProt entry, the sequences of proteins in these tests, tags left out.
UniProt Q6NZQ4: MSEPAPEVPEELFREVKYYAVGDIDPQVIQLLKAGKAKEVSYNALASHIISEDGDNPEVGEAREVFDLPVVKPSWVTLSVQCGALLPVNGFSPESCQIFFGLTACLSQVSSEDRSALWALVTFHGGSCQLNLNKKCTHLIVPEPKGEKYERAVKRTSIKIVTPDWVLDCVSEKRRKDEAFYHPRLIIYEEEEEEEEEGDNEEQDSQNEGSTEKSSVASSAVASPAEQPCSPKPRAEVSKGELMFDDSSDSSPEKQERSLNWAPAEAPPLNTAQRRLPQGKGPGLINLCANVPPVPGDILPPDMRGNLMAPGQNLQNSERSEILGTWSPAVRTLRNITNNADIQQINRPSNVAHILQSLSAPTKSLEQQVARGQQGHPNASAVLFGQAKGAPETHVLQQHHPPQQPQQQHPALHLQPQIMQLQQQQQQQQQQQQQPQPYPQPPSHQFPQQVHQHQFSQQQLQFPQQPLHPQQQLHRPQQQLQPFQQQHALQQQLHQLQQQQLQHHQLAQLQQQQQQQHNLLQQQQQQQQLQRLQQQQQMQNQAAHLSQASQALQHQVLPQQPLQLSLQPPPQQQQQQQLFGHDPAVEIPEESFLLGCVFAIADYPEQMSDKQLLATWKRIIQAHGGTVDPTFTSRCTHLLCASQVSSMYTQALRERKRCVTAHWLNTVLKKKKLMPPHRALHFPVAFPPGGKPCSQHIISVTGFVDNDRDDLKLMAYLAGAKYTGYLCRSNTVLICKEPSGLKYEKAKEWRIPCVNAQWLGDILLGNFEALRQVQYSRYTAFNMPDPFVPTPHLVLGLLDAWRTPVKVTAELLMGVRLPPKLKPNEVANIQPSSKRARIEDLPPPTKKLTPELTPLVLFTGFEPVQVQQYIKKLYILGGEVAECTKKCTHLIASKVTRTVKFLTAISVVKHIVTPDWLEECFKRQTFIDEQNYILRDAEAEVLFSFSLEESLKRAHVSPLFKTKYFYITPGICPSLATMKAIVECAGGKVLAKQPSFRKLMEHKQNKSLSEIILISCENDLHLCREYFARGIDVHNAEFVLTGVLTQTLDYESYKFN

How the values were obtained:
Experiment in all cases: co-IP; C3H10T1/2 cells infected with retrovirus expressing FLAG-tagged protein; whole cell extracts in RIPA buffer, FLAG-M2 agarose 16 h at 4 °C, four washes with RIPA, immunoblot of endogenous partners; also control and shKDM4D cells at day 5 after induction of differentiation
[1] = target: FLAG-NFIB (mouse) (UniProt P97863)
[2] = target: T1, FLAG-KDM4B (UniProt Q91VY5)
T1 sequence: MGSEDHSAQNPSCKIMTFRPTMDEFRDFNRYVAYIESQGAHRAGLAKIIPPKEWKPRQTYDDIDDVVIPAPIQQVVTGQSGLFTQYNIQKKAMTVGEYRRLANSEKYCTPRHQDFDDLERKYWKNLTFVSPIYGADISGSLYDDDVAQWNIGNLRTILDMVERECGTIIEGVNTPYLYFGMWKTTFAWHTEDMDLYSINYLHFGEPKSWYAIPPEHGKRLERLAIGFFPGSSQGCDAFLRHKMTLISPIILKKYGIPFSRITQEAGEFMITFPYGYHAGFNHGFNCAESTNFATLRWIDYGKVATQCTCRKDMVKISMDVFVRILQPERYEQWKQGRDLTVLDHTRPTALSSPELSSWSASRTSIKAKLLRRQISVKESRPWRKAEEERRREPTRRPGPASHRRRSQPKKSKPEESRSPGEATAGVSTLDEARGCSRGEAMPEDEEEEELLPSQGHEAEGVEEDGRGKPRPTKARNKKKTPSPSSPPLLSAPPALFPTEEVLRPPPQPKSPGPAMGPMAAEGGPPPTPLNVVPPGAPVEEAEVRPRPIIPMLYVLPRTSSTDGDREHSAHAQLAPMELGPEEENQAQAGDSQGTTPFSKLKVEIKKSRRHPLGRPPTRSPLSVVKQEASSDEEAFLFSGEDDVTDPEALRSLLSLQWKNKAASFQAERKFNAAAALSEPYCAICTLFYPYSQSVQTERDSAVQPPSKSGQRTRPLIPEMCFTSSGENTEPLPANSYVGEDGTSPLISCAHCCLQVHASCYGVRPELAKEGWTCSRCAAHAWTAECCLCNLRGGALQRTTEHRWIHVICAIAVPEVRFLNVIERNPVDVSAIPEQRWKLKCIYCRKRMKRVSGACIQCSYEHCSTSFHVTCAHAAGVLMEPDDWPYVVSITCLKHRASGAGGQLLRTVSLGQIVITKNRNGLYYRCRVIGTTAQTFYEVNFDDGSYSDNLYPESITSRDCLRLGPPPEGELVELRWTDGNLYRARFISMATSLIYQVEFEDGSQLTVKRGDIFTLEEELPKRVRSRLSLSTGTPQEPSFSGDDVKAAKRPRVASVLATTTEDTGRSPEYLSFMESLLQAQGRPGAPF

[3] = target: T2, FLAG-KDM4A (UniProt Q8BW72)
T2 sequence: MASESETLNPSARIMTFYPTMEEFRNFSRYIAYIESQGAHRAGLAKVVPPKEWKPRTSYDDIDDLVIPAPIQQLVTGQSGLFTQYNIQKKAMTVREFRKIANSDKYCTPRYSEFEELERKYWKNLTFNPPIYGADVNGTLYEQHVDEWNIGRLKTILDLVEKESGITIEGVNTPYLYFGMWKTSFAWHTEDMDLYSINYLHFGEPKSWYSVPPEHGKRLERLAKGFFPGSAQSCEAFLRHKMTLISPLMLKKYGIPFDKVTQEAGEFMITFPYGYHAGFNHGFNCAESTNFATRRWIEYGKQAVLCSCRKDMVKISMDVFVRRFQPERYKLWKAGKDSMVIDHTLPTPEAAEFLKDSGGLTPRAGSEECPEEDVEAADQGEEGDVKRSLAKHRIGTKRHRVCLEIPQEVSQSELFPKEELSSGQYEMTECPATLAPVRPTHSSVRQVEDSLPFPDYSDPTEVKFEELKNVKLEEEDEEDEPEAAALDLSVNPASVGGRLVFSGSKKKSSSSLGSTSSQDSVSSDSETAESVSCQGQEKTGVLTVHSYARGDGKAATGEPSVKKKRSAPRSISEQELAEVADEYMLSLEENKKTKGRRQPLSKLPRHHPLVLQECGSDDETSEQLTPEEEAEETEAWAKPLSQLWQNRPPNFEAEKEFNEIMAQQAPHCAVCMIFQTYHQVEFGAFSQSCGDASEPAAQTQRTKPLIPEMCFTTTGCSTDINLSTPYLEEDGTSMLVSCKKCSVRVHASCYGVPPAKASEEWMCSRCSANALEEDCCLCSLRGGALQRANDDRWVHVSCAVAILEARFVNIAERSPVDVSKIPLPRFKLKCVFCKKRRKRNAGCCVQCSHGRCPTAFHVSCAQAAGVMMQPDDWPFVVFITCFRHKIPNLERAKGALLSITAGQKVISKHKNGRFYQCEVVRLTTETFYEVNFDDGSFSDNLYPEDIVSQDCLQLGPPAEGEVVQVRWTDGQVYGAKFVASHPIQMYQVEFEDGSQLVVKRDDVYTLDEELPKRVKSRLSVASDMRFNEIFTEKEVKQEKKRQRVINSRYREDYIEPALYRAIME

[4] = target: T3, FLAG-KDM4C (UniProt Q8VCD7)
T3 sequence: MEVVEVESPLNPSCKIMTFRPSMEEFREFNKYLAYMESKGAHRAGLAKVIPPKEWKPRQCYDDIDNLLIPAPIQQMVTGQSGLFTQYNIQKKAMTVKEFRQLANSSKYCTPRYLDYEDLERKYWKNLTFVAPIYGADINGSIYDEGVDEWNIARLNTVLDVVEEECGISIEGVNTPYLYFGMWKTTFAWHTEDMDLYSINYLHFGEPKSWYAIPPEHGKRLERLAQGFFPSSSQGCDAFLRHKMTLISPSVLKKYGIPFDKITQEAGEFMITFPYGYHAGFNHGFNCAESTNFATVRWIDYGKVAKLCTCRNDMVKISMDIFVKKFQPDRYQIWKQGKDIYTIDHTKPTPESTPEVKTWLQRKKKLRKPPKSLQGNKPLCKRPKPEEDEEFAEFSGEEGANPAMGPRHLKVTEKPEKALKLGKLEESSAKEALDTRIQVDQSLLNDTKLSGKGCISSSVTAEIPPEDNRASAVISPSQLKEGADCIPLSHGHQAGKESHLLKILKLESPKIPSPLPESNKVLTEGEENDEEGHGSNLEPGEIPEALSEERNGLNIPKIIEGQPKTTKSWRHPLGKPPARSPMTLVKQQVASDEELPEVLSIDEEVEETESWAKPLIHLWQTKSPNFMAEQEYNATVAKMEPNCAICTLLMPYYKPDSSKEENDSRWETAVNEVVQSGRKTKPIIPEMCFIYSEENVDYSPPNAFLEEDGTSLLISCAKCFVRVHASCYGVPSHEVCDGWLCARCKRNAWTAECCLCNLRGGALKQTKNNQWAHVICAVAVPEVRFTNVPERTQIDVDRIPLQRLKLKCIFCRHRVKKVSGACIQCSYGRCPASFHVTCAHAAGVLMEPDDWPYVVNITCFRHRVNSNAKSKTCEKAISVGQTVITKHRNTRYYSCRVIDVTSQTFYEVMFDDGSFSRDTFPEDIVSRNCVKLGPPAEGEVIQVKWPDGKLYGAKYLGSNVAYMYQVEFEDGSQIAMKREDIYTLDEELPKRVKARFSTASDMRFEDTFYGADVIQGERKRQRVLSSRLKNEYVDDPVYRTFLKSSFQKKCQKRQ

[5] = target: T4, FLAG-KDM4D (mouse) (UniProt Q3U2K5)
T4 sequence: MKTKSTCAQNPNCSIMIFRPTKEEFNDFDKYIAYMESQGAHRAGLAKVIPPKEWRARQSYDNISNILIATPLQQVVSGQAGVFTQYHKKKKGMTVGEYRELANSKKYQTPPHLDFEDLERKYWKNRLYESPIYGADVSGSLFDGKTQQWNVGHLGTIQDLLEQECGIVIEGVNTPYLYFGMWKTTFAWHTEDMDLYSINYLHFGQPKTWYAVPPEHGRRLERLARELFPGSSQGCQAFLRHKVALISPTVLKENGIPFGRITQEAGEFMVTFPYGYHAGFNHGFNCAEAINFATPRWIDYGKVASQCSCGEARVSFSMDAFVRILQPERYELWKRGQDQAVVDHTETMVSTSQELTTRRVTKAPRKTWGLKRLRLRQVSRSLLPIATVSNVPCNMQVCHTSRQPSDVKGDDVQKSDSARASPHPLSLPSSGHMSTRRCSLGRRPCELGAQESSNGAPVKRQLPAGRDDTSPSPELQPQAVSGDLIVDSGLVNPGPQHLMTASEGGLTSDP

| Molecule | binding [1] | binding [2] | binding [3] | binding [4] | binding [5] |
| --- | --- | --- | --- | --- | --- |
| Ash2l (from UniProt Q91X20 1-623) | binds |  |  |  |  |
| MLL1 (from UniProt P55200 1-3966) (enzyme) | binds | no binding | no binding | no binding |  |
| NFIB (from UniProt P97863 1-570) |  | no binding | no binding | no binding |  |
| PTIP (from UniProt Q6NZQ4 1-1056) | no binding |  |  |  | no binding |
| Rbbp5 (from UniProt Q8BX09 1-538) | binds |  |  |  |  |
| B1 | binds |  |  |  |  |

From article PMC7033117
